Data on 43 molecules can be found in ChEMBL document CHEMBL4888484, “Replenishing the malaria drug discovery pipeline: Screening and hit evaluation of the MMV Hit Generation Library 1 (HGL1) against asexual blood stage Plasmodium falciparum ,using a nano luciferase reporter read-out” (2022).

Hit rate of the full screen: of about 150,000 compounds, about 540 (0.36%) showed an effect of 50% or more. Some of the results follow.

For orientation: % Inhibition means the drop in the measured response relative to a control, in per cent.

The test has as its system Plasmodium falciparum. Description: Primary screen in NF54 nanoGlo assay, in single point, at 2uM, 72h; a lower Z score goes with more inhibition. It is filed as functional, Erythrocyte. Particulars: timepoint 72 hour.
With `CCCC(CCC)C(=O)Nc1ccc(NC(C)=O)cc1`, the “% Inhibition” value is -4% and the Z score is 0.84.
The matching figures for `CN(Cc1ccccc1)C(=O)CCC1CCN(c2ccc3ccccc3n2)CC1`: -10% and 1.44.
The matching figures for `CS(=O)(=O)N1CCN(C(=O)[C@]2(c3ccccc3)CC23CCCC3)CC1`: -6% and 0.56.
Take `Cc1ccn2c(CN(C)CCc3ccncc3)cnc2c1`: the “% Inhibition” value was -5% and the Z score is given as 0.55.
As to `c1cn(CCCn2nccc2C2CC2)c(-c2cc3n(n2)CCCNC3)n1`, the “% Inhibition” value is -12% and the Z score amounted to 1.58.
The matching figures for `Cc1ccc(S(=O)(=O)N(C)c2cccc(C(=O)N(C)C3CCCCC3O)c2)cc1` (stereo unspecified): -7% and 0.97.
The matching figures for `CCN1CCC[C@H](NS(=O)(=O)c2cnn(CC)c2)C1`: -1% and 0.13.
The matching figures for `Cc1nc(C)c(CC(=O)Nc2ccc(C)c(Cl)c2)c(=O)[nH]1`: -6% and 1.23.
In the case of `Cc1cc(C)cc(C(=O)N2CCCN(c3nc4c(s3)c(C)nn4-c3ccc(F)cc3)CC2)c1`, the “% Inhibition” value is on record as -7% and the Z score amounted to 1.22.
Take `O=C(Nc1cnoc1)c1ccc(Oc2ccccc2)cc1`: the “% Inhibition” value is -14% and the Z score was 2.12.
The matching figures for `O=C(Nc1ccn2ccnc2c1)NC1CC2CC2C1` (stereo unspecified): 3% and -0.56.
Regarding `Cc1cc(=O)c(C(=O)N2CCN(C)CC2)c(CCc2ccccc2)n1Cc1ccncc1`, the “% Inhibition” value is recorded as -6% and the Z score came to 0.68.
The matching figures for `CCC=CCCn1cnc2[nH]ccc2c1=O`: 6% and -1.14.
The matching figures for `COc1cc(C(=O)NC[C@H]2CCCN(CC(C)C)C2)ncn1`: 1% and -0.16.
Take `CCN(CC)CCN(CC(C)C)S(=O)(=O)c1ccccc1OC`: the “% Inhibition” value is -13% and the Z score is given as 1.89.
The matching figures for `Cc1c(CN2CCC3(CC2)C(=O)NCCCN3C)[nH]c2ccc(F)cc12`: -12% and 1.88.
The matching figures for `CC(C)n1c(=O)c2sc(N3CCCCC3)nc2n(CC(=O)Nc2ccccc2)c1=O`: -7% and 0.64.
The matching figures for `CC(C)N(CC(N)=O)C(=O)C1C(C)C1(F)F` (stereo unspecified): -2% and 0.16.
Consider `Cc1ncsc1CN(C[C@H](O)c1ccccc1)C1CC1`, for which the “% Inhibition” value is on record as 5% and the Z score is -0.6.
The matching figures for `O=C(CN1CC(=O)Nc2ccccc21)Nc1ccc(F)c(F)c1`: -34% and 4.
The matching figures for `COc1cc(NC(=O)c2cnn(-c3c(C)cccc3C)c2C2CCN(C(=O)OC(C)(C)C)CC2)cc(OC)c1`: -3% and 0.32.
The matching figures for `CC(C)[C@H](C)N(Cc1nnsc1Cl)C1CC1`: -7% and 0.69.
Regarding `Cc1nc(C)c(CN2CCC[C@H](O)C2)s1`, the “% Inhibition” value is -14% and the Z score came to 1.64.
Turning to `CCc1c(C)c(C(=O)NCc2ccccn2)n(Cc2cccc(C(F)(F)F)c2)c1C`, the “% Inhibition” value is given as -1% and the Z score is on record as 0.08.
The matching figures for `C=C(C)C(C)(C)C(=O)N[C@H]1CCOC[C@@H]1OCC1CC1`: -18% and 3.42.
The matching figures for `CNC(=O)N[C@@H](Cc1ccc(F)cc1)C(C)C`: 29% and -3.26.
The matching figures for `CC(C)c1nccc(NCCCn2ccnc2)n1`: -7% and 0.65.
Consider `Cc1noc(C)c1CC(=O)N1CCC(c2nnc(-c3ccc(F)cc3)o2)CC1`, for which the “% Inhibition” value is on record as -5% and the Z score is recorded as 0.53.
With `C[C@@H](c1cccnc1)N(C)Cc1cccc2[nH]ccc12`, the “% Inhibition” value was -8% and the Z score is 0.94.
The matching figures for `COC(=O)c1cc(CN)cc(NC(=O)c2cccc(OC)c2)c1`: 4% and -0.66.
The matching figures for `COc1cncc(C(=O)N2CCCc3cc(S(C)(=O)=O)ccc32)n1`: 39% and -4.38.
The matching figures for `Cn1cc(-c2ccc(-c3cnco3)s2)cn1`: -6% and 0.8.
On to `c1cnc2nc(N3CC4CCC3C4)ccc2n1` (stereo unspecified), for which the “% Inhibition” value was -12% and the Z score was 1.34.
As to `CCn1cc(-c2ccc(C)cc2)cc1C(=O)N1CCOCC1`, the “% Inhibition” value is given as 8% and the Z score is given as -1.29.
The matching figures for `Oc1ccc2ccccc2c1C1Nc2cccc3cccc(c23)N1`: -3% and 0.59.
As for `Cc1ccc(C(=O)Nc2ccc(N3CCC(N(C)CCCOC(C)C)CC3)c(C(=O)O)c2)cc1`, the “% Inhibition” value was -19% and the Z score worked out at 1.72.
The matching figures for `CCN1CCC[C@@]2(CCN(C(=O)c3c(C)n[nH]c3C3CC3)C2)C1=O`: -9% and 1.76.
The matching figures for `CC1CC(Nc2cccc3c2CN(C)C3=O)c2nccn21` (stereo unspecified): 0% and 0.05.
For the molecule `Cc1cc(COc2cc(F)ccc2F)on1`, the “% Inhibition” value is recorded as 34% and the Z score is recorded as -3.83.
The matching figures for `CN(Cc1ccccc1)C(=O)N1CCN(C(=O)C#Cc2ccc3c(c2)OCO3)CC1`: 3% and -0.45.
Consider `Cc1c([C@H](C)NC(=O)c2cc(=O)[nH]c(=O)[nH]2)cnn1-c1cccc2ccccc12`, for which the “% Inhibition” value was -20% and the Z score was 1.77.
The matching figures for `Cc1cc(F)ccc1CN1CC(N2CCNC2=O)C1`: -8% and 1.24.
The matching figures for `O=C(CCC1CCCC1)N1C2C=CCC1CC2` (stereo unspecified): -3% and 0.36.
